Data: article PMC4336329 (PLoS ONE, 2015)
Screen size: about 310,000 compounds; about 14,000 (4.5%) showed an effect of 50% or more. Effects have a minus sign here. This is one part of the list.

target: human ether-à-go-go-related gene (hERG) potassium channel (human, UniProt Q12809); test: primary screen, population patch clamp on CHO cells stably expressing hERG
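Also: peak tail current of the secondary pulse compared with the same well before compound.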

Chain of human ether-à-go-go-related gene (hERG) potassium channel (Q12809 whole entry, looked up): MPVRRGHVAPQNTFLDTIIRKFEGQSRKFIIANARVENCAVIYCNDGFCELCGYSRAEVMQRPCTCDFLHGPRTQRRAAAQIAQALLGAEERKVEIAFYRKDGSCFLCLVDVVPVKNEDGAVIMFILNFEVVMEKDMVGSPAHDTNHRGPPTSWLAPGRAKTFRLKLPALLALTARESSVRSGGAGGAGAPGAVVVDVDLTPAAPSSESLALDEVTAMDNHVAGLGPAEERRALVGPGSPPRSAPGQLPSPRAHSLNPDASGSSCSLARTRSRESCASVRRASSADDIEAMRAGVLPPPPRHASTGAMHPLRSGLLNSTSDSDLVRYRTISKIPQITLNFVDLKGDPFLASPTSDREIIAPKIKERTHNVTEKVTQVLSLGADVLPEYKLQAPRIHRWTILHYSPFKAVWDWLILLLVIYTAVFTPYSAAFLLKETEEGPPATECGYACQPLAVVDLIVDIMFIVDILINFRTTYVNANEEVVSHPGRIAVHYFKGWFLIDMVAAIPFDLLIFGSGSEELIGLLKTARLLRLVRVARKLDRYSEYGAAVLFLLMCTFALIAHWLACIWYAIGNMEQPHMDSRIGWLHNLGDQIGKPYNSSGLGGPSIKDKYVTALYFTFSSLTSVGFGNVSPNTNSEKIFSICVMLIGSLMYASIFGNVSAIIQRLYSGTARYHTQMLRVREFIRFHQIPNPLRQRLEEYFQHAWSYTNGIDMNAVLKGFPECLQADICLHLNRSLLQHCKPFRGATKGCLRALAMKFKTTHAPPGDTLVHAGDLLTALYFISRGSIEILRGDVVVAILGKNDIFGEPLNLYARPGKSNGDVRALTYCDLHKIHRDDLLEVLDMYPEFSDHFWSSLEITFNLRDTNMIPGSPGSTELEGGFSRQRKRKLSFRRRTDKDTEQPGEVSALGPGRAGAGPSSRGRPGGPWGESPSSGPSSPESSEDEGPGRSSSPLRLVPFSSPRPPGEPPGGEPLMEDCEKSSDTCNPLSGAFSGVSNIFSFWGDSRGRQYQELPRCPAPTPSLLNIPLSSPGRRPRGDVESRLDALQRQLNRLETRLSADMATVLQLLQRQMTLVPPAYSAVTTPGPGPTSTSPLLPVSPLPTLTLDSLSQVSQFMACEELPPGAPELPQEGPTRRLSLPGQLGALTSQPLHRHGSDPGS

Compound	hERG current change (%, negative = inhibition) at 10uM
CCCNCc1cc(OC)c(OCc2ccccc2)cc1Br.Cl	-28.2%
Cc1ccc2nc(N3CCN(C)CC3)[nH]c2c1.Cl	8.48%
Cc1ccccc1NC(=O)/C=C1\SC(=O)NC1=O	17.5%
Cc1nc(N2CCOCC2)c2cc(-c3ccccc3)sc2n1	-3.14%
CCCCN(CCCC)CCNC(=O)c1cn(CC)c2ccc(S(=O)(=O)N3CCc4ccccc4C3)cc2c1=O	-78.8%
CCOc1cccc2sc(Cl)nc12	13.7%
COCCN(C(=O)c1oc2ccccc2c1COC)c1c(N)n(CC(C)C)c(=O)[nH]c1=O	1.71%
CC(C)CN(C(=O)c1ccc(S(=O)(=O)N2CCCC2)cc1)C1CCS(=O)(=O)C1 (stereo not drawn)	-3.52%
CCOCC(=O)Nc1ccc(S(=O)(=O)N2CCOCC2)cc1	13.5%
CSc1cccc(NC(=O)c2ccc(NC3=NC4CS(=O)(=O)CC4S3)cc2)c1 (stereo not drawn)	13.5%
CN1CCN(C(=O)C2=C[C@H](C3CC3)C[C@H](OCc3ccc(CO)cc3)O2)CC1	-1.42%
CCOc1ccccc1NC(=O)CSc1n[nH]c(N)n1	13.9%
Cc1ccc(-n2c(SCC(=O)Nc3cc(C)on3)nc3c(c2=O)SC(C)C3)cc1 (stereo not drawn)	-24.8%
CCCCC(CC)C(=O)Nc1cc(C(=O)NCc2ccc(C)cc2)ccc1N1CCC2(CC1)CC(c1cccc(Br)c1)=NO2 (stereo not drawn)	17.6%
O=C(COc1ccc(Cl)cc1)NCc1n[nH]c(=O)c2ccccc12	-13%
CC(C)(C)n1nc2c(c1NC(=O)c1ccc([N+](=O)[O-])cc1)CS(=O)(=O)C2	-34.2%
O=[N+]([O-])c1ccc(Sc2ncc3ccccn23)nc1	-51.6%
Cn1c(SCC(=O)N2CCc3ccccc3C2)nnc1-c1ccncc1	-28.5%
Cc1ccc(C(=O)N/C(=C/c2cccnc2)C(=O)O)cc1	8.41%
O=C(CNC(=O)c1ccc(-c2ccccc2)cc1)Nc1ccc(S(=O)(=O)Nc2ncccn2)cc1	4.04%
CCCCC(=O)NN(C)c1nc(-c2ccccc2)nnc1C(F)(F)F	9.7%
CSc1ccccc1NC(=O)CN(C1CCCCC1)S(C)(=O)=O	-1.49%
COc1ccc(C(=O)ON=C2CCN(c3ccc([N+](=O)[O-])cc3)CC2)cc1	-68.5%
COc1cccc(CC(=O)OC(C)C(=O)Nc2ncc(Cl)cc2Cl)c1 (stereo not drawn)	-5%
